Screen size: about 150,000 compounds; about 540 (0.36%) showed an effect of 50% or more. Some of the results follow.
system: Plasmodium falciparum; assay: Primary screen in NF54 nanoGlo assay, in single point, at 2uM, 72h; a lower Z score goes with more inhibition; assay type: functional, Erythrocyte; details: timepoint 72 hour

Row | Compound | % Inhibition [%] | Z score
1 | CC[C@@H](C(N)=O)N1CC(n2cccn2)C1 | -3 | 0.48
2 | COc1ccc(NC(=O)C2C3CCC(CC3)C2C(=O)O)c(OC)c1 (stereo unspecified) | -9 | 1.83
3 | CN1[C@@H](CO)C[C@@H](CNC(=O)c2cnn[nH]2)[C@H]1c1ccccc1F | -6 | 0.88
4 | Cc1ccnc(-n2nccc2NC(=O)N[C@H]2CCCOc3c(F)cccc32)c1 | -17 | 1.7
5 | CC1(C)C[C@H](NCC(=O)Nc2sccc2C#N)C(C)(C)O1 | -4 | 0.49
6 | Cc1ccoc1C(=O)N1CCC(Oc2ccc3ncccc3c2)(C(=O)O)CC1 | -14 | 2.32
7 | Cc1ccc2c(c1)c(CNC(=O)[C@@H]1CC=CCC1)nn2C | -10 | 1.25
8 | CCc1cnc(CN(C)S(=O)(=O)c2cc(Cl)cnc2N)s1 | -6 | 0.96
9 | COCCN(C(C)=O)c1nc(CN2Cc3c[nH]nc3[C@@H](C)C2)cs1 | 2 | -0.26
10 | CC(C)c1noc([C@H](C)N2CCc3[nH]c4ccccc4c3C2)n1 | 3 | -0.41
11 | COc1ccc(CC(=O)Nc2cc(-c3nc4cccnc4s3)ccc2C)cc1OC | 0 | 0.05
12 | O=C(c1cccnc1)N1CCC2(CC1)CN(C(=O)c1ccccc1)C[C@@H]2c1ncco1 | -10 | 1.44
13 | CCn1ccnc1CN1CCOc2c(O)cc(-c3ccc(Cl)cn3)cc2C1 | -5 | 0.94
14 | Cc1ccc(OCC(=O)N2CCC(c3nc4ccccc4o3)CC2)cc1C | -18 | 1.61
15 | Cc1cc(C(=O)N2CCOCC2(C)C)c(C)n1Cc1ccccn1 | -40 | 4.65
16 | C=CCNC(=O)C[C@@H]1CCN(S(=O)(=O)c2ccccc2)C[C@@H]1CC | 33 | -3.78
17 | CCc1nsc(NCCCc2nc(C)no2)n1 | -8 | 1.49
18 | COCc1nc([C@H]2CCOC2)cc(N2CCN(Cc3nccn3C)CC2)n1 | -19 | 2.52
19 | CC[C@@H](CO)NCc1cccc(OC)c1OC | 1 | -0.16
20 | CCC1CN(C(=O)C(C)C)CCC1NCc1ccc(OC)c(C#N)c1 (stereo unspecified) | -7 | 0.9
21 | Clc1cccc(Cl)c1Cc1n[nH]c(CCCn2cccn2)n1 | -14 | 1.86
22 | O=C(Cn1nnnc1CN1CCCC1)N1CCN(c2ccc(F)cc2)CC1 | -11 | 1.62

Row | Compound | % Inhibition [%] | Z score
23 | Cc1cnc(C(=O)NC2C[C@H]3CC[C@@H](C2)N3C(=O)CCC2CCCC2)cn1 (stereo partly specified) | 6 | -0.98
24 | COc1ccc(C(F)(F)C(=O)Nc2cnns2)cc1 | -11 | 1.77
25 | Cc1nc(CN(C(=O)c2onc3c2CCCC3)C(C)C)no1 | -13 | 1.59
26 | COc1ccc(C(=O)N2CCc3ccc(C(=O)NCc4ccc5c(c4)OCO5)cc32)cc1 | -7 | 0.84
27 | CCCCn1nc(C2CCCC2)nc1[C@@H]1COCCO1 | -8 | 1.09
28 | Cc1noc(C)c1NC(=O)N[C@@H](C)Cc1ccsc1 | -17 | 1.83
29 | CCOc1ccccc1CNS(=O)(=O)c1cc(-c2nc(C)cs2)n(CC(=O)N2CCCC2)c1 | 9 | -1.04
30 | CCCCN(C)S(=O)(=O)N(CC)Cc1cnn(C)c1 | -6 | 0.76
31 | CC(C)C(CNC1CCC(S(C)(=O)=O)CC1)C(C)C (stereo unspecified) | 3 | -0.44
32 | Cc1ccccc1-c1cncc(C(=O)NCc2cccnc2)c1 | -5 | 0.79
33 | COC(=O)[C@H]1CCn2c(nnc2C(=O)Nc2ccc(C)c(C)c2)C1 | 1 | -0.12
34 | Cc1ccc2nc(N3CCC[C@H](C(=O)NCCCN(C)C4CCCCC4)C3)[nH]c2c1 | 6 | -1.14
35 | O=C(Cc1ccsc1)NCc1nnc2n1CC[C@H](C(F)(F)F)C2 | -21 | 2.63
36 | C=CCCS(=O)(=O)N(CC(C)C)c1cccc(O)c1 | -6 | 0.77
37 | CC(C)(C)CC(=O)NCc1ccc(-c2ccco2)o1 | 9 | -1.27
38 | O=C(COc1ccccc1Br)NCc1n[nH]c(=O)[nH]1 | -14 | 1.45
39 | COCCN(CCOC)CC(=O)Nc1cc(OC)cc(OC)c1 | -3 | 0.41
40 | CN(C)c1ccc(C#N)c(NS(=O)(=O)c2cc(Cl)sc2Cl)c1 | -8 | 1.24
41 | O=C(Cc1ccc(Cl)s1)Nc1nc2ccccc2s1 | -14 | 1.57
42 | CC(C)(C)n1nnc(C(=O)N[C@H](CC(=O)O)c2cccc(Br)c2)n1 | -7 | 1.39
43 | COCC[C@H]1CCCCN1C(=O)Nc1ccccc1C1CC1 | -1 | 0.1
